Over roughly 33,000 sequences, “E-score (-0.5 to 0.5)” has its median near -0.012; the highest 2% begin near 0.27. The list shows a part of the results.
Target: T1, Vhr1 (UniProt P40522)
T1 sequence: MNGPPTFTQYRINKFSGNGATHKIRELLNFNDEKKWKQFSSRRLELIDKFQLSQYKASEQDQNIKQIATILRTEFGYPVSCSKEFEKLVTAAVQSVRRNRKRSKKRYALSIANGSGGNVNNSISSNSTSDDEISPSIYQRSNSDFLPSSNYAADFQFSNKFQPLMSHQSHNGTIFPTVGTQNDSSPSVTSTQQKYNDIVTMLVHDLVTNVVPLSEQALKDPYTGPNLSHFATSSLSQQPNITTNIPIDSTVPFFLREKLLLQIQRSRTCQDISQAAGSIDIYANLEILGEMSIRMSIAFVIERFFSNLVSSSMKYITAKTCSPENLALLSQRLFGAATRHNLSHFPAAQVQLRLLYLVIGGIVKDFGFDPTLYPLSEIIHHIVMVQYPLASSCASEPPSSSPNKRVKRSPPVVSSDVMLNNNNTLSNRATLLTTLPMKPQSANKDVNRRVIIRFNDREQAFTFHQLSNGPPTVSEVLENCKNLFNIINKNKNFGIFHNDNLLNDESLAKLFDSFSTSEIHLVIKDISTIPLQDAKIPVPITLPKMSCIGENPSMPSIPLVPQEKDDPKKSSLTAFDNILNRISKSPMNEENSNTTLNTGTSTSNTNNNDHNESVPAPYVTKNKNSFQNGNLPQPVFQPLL
Experiment: PBM E-score (8-mer binding enrichment) (E-score (-0.5 to 0.5)); higher = stronger / more preferred TF binding; most listed sequences are background and not binding sites
Conditions: protein concentration: 200 nM; construct: GST-full length
Outline: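 Bound GST-tagged yeast transcription factors, applied at about 100-200 nM to double-stranded universal all-10-mer Agilent arrays, were detected with fluorescent anti-GST. Scans were normalised with masliner. A modified Wilcoxon-Mann-Whitney statistic, the E-score, was assigned to each ungapped eight-base word pooled with its reverse complement by the Universal PBM Analysis Suite.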

Sequence | PBM E-score
GGGCATCA | 0.0106
CGGTACAC | -0.00878
GACTGATA | 0.13
AGCTCCGC | -0.0601
AACAAGAC | 0.0255
ACTAACGC | 0.0384
GAGCGTCC | -0.218
AATGGACG | 0.0574
AGAGTCGC | 0.338
ACTCCTAG | -0.0528
ATGACACC | 0.0744
TCGGAACA | 0.041
GGGGCTGA | -0.0525
ATCGATTA | 0.122
GCACTACA | -0.0412
ACGTATCT | -0.00189
CCAATGCC | -0.247
GAAACCGC | 0.159
AATGTTGG | -0.0754
ATTTAACG | -0.165
AAGGGCCT | -0.174
CGTAGCCC | 0.0557

Sequence | PBM E-score
AGTGTCAT | 0.194
AAGATAAA | -0.126
GCTTCACC | -0.0739
CTCATCAG | 0.312
AGGACCGA | 0.0357
CAGCGTGA | 0.105
AGGATTTA | -0.0327
ATGTTTAG | 0.043
TCTCCCAA | -0.0937
AAGCGGTA | -0.0247
ACGCGAGG | -0.113
CCTCTATC | -0.13
ACTATGGC | 0.163
AGGTTTGC | 0.0194
GGTGCGCA | 0.0828
ACAGATGT | 0.0935
GCGCGCGA | 0.185
ACTTGGAG | -0.0624
AGTCGACT | 0.33
GACGAAAC | -0.0593
ACATTCCC | -0.00322
AGTGTGGA | -0.0588

Sequence | PBM E-score
ATTCGACG | 0.148
ATACCCAC | 0.176
TATTCAAA | -0.0062
CTTCGAAG | -0.178
GATCGTGC | 0.135
GAAAAGCA | -0.149
CACCAGAC | 0.309
AACGGTAG | -0.0451
GCACTGGC | -0.0876
ATGCTTAC | -0.0969
CATGCGAC | 0.147
CAAATTTA | -0.135
ACTCGTCC | 0.122
GAGCACAA | 0.0362
CCGCCGCC | 0.183
GCAAGCAA | -0.0657
AATTGGAG | 0.0101
ATCCTCAG | 0.0653
CGCCTCGA | 0.0789
AACAAAGC | 0.0625
ATCTTGTG | -0.0506
AAGGAAGT | 0.0312

Sequence | PBM E-score
CATAACCG | 0.0778
CCCCGGCC | -0.0543
CCACCGCA | 0.0143
TACATTCA | -0.0891
TACAGACA | 0.0619
GGTTTTAC | -0.214
CCTTCCGA | -0.0757
TGACGACA | 0.0278
CCCGCGCA | 0.24
ACGCAAAA | -0.0826
CCCCTACA | -0.15
AGTTTCAT | 0.15
GCAGCATA | 0.072
ACAAATCG | 0.0133
AAGATAGG | -0.136
AGCATATG | 0.0295
ATTGGGGC | -0.126
AAGGCCCG | -0.328
GCTTCTGA | -0.0878
AGACATGA | 0.227

Reference: the supplement of paper PMC3334620
